Source: PubChem BioAssay AID504466 (National Center for Advancing Translational Sciences (NCATS), 2011)
About 4,200 (1.3%) of roughly 330,000 compounds were called active. The inconclusive results got no clear call from the source; some entries with a clear call stand among them for comparison. Calls come from the whole dose curve; as a rule, active = well fitted activation curve with a large enough effect; inconclusive = small, poorly fitted or top-dose-only effect; inactive = no such curve, though single readings can be large or run the other way. Potencies of inconclusive entries are doubtful fits and often do not repeat.

Assay: qHTS screen for small molecules that induce genotoxicity in human embryonic kidney (HEK293T) cells expressing luciferase-tagged ELG1; note: nearly all actives have a fitted effect of over 60% in size; for activity change, positive = activation: % of control where 0% means no effect
Settings: HEK293T ELG1-luciferase reporter, luminescence, 16 h; series mostly up to 46 µM; activity change, positive = activation: at the top concentration
In short: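 Step 1: seed 2,000 HEK293T ELG1-luciferase cells per well. Step 2: add compound or DMSO, incubate 16 hr at 37 °C. Step 3: ONE-Glo, 30 min at room temperature, read luminescence.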
Potency is the fitted concentration of half-maximal effect; tags give direction and shape of the fitted curve.

**Q.** With Cc1ccc(CSc2nnc(-c3ccco3)o2)cc1 as the compound, how does the Potency read?
**A.** inconclusive: 9.2 µM [activator, partial curve, poor fit]

**Q.** Which “activity change, positive = activation” value does the source give for CC(C(c1cccs1)c1c(N)n(C)c(=O)n(C)c1=O)[N+](=O)[O-] (centres undefined) here?
**A.** inactive: -1.16%

**Q.** With Cc1noc(C)c1-c1nc(CS(=O)(=O)c2ccc(F)cc2)no1 as the compound, how does the “activity change, positive = activation” value read?
**A.** inactive: -0.16%

**Q.** For COc1cc2c3c(c1)C(C)=CC(C)(C)N3C(=O)C2=O, which Potency is on record?
**A.** inconclusive: 20.6 µM [activator, partial curve, poor fit]

**Q.** With Cc1cc(=O)[nH]c(SCCOc2ccc(OC(C)C)cc2)n1 as the compound, how does the Potency read?
**A.** active: 5.17 µM

**Q.** With Cc1ccc(NC(=O)C2Cc3ccccc3C(=O)O2)cc1 (centres undefined) as the compound, how does the Potency read?
**A.** inconclusive: 5.17 µM [activator, full curve]

**Q.** For CC(=Nc1ccc(C)c(C)c1)C1=C(O)CCC1=O, which Potency is on record?
**A.** inconclusive: 29.1 µM [activator, single point]

**Q.** For C(=N\Nc1nc2ccccc2s1)/c1ccc2c(c1)OCO2, which Potency is on record?
**A.** inconclusive: 1.3 µM [activator, full curve]

**Q.** For COc1ccc(C(=O)COC(=O)[C@@H](NS(=O)(=O)c2ccccc2)C(C)C)cc1, which “activity change, positive = activation” value is on record?
**A.** inactive: -0.116%

**Q.** With Cc1ccc(C(=O)NC(=S)Nc2cc(-c3nc4ccccc4s3)ccc2C)cc1 as the compound, how does the Potency read?
**A.** inconclusive: 18.4 µM [activator, partial curve]

**Q.** With COC(=O)c1ccccc1NC(=O)c1cccc(COc2ccccc2Cl)c1 as the compound, how does the Potency read?
**A.** inconclusive: 4.61 µM [activator, partial curve]

**Q.** With COc1ccc(N(Cc2ccccc2)C(=O)CSc2nnc(Cn3nnc4ccccc43)o2)cc1 as the compound, how does the “activity change, positive = activation” value read?
**A.** inactive: -18.9%

**Q.** With C=CCNC(=S)NC(=O)c1oc2ccccc2c1C as the compound, how does the Potency read?
**A.** inconclusive: 14.6 µM [activator, partial curve, poor fit]

**Q.** Which Potency does the source give for O=C(NC(=S)Nc1ccc2c(c1)OCO2)c1ccccc1 here?
**A.** inconclusive: 2.06 µM [activator, full curve]

**Q.** For CCSc1cc(C)nc2c(-c3ccc(Cl)cc3)c(C)nn12, which “activity change, positive = activation” value is on record?
**A.** inactive: 0.508%

**Q.** For Cn1c(SCc2ccccc2)nnc1-c1c[nH]c2ccccc12, which Potency is on record?
**A.** active: 14.6 µM

**Q.** For CCC(O)c1cc2c(cc1NC(=O)c1ccc(C)cc1)OCCO2 (centres undefined), which “activity change, positive = activation” value is on record?
**A.** inactive: 10.4%

**Q.** For Cc1cc(C)c2c(CCl)cc(=O)oc2c1, which Potency is on record?
**A.** inconclusive: 3.66 µM [activator, full curve, poor fit]

**Q.** For Nc1ccc(NC(=O)NC2CCCCC2)cc1, which Potency is on record?
**A.** inconclusive: 13 µM [activator, partial curve, poor fit]

**Q.** With COc1ccc(OC)c(/C=C2\N=C(c3ccccc3)OC2=O)c1 as the compound, how does the “activity change, positive = activation” value read?
**A.** inactive: 2.01%

**Q.** For CC(c1ccncn1)N(C)C(=O)c1ccc2oc(Cc3ccccc3)nc2c1 (centres undefined), which Potency is on record?
**A.** inconclusive: 18.3 µM [activator, partial curve, poor fit]

**Q.** For C/C(=N\NC(=O)c1nc(C)cc(C)n1)c1ccccc1, which Potency is on record?
**A.** inconclusive: 5.8 µM [activator, partial curve]

**Q.** For Cc1cc(C)c2c(N)c3ccccc3nc2n1, which Potency is on record?
**A.** inconclusive: 13 µM [activator, partial curve, poor fit]

**Q.** With CCN(CC)c1ccc(/C=C/C(=O)C2C(=O)C=C(C)OC2=O)cc1 (centres undefined) as the compound, how does the Potency read?
**A.** inconclusive: 20.6 µM [activator, partial curve]

**Q.** Which Potency does the source give for COc1ccc(CCNC(=O)c2ccc3c(c2)OCCO3)cc1 here?
**A.** inconclusive: 11.6 µM [activator, partial curve, poor fit]

**Q.** For Cc1ccc(C(=O)NCC(=O)NC23CC4CC(CC(C4)C2)C3)cc1, which Potency is on record?
**A.** active: 16.4 µM

**Q.** Which Potency does the source give for CNC(=O)c1ccccc1NC(=O)c1c(O)c2c([nH]c1=O)CCCC2 here?
**A.** inconclusive: 25.9 µM [activator, partial curve, poor fit]

**Q.** For Cc1cc(C)cc(C(=O)Nc2nc3ccccc3[nH]2)c1, which Potency is on record?
**A.** inconclusive: 3.98 µM [activator, single point]

**Q.** For O=C(N/N=C/c1ccccc1F)NC1CCCCC1, which Potency is on record?
**A.** inconclusive: 23.1 µM [activator, single point]

**Q.** Which Potency does the source give for O=C(COc1ccc(F)cc1)Nc1ccc2c(c1)OCCO2 here?
**A.** inconclusive: 10.3 µM [activator, partial curve]

**Q.** For COc1cc(/C=N/NC(=O)C(=O)/C=C2\NC3(CCCC3)Cc3ccccc32)ccc1O, which “activity change, positive = activation” value is on record?
**A.** inactive: -6.17%

**Q.** Which Potency does the source give for CCc1c(C)nc2[nH]nc(-c3ccccc3)n2c1=O here?
**A.** inconclusive: 13 µM [activator, single point]

**Q.** For CCOc1cc(/C=N/NC(=O)c2ccccn2)ccc1OC(=O)c1cccs1, which Potency is on record?
**A.** inconclusive: 20.6 µM [activator, partial curve, poor fit]

**Q.** For Nc1nc(-c2ccc(Oc3ccccc3)cc2)cs1, which Potency is on record?
**A.** inconclusive: 20.6 µM [activator, partial curve, poor fit]

**Q.** Which Potency does the source give for Cc1cccc(CSc2ccc(-c3ccco3)nn2)c1 here?
**A.** inconclusive: 16.4 µM [activator, partial curve, poor fit]

**Q.** Which Potency does the source give for CCCCNC(=O)/C(C#N)=C/c1ccc2c(c1)OCCO2 here?
**A.** inconclusive: 29.1 µM [activator, partial curve, poor fit]

**Q.** For COc1ccccc1NC(=O)COc1ccccc1, which Potency is on record?
**A.** inconclusive: 18.4 µM [activator, partial curve, poor fit]

**Q.** With COC(=O)c1ccsc1NC(=O)c1ccc2c(c1)OCCO2 as the compound, how does the “activity change, positive = activation” value read?
**A.** inactive: 14.4%

**Q.** For CCOC(=O)C1=C(CSc2nc(-c3ccccc3)ccc2C#N)OC(N)=C(C#N)C1c1ccccc1 (centres undefined), which Potency is on record?
**A.** inconclusive: 23.1 µM [activator, partial curve, poor fit]

**Q.** For COC(=O)c1c(-n2c(C)cc(C=O)c2C)sc2c1CCCC2, which “activity change, positive = activation” value is on record?
**A.** inactive: 1.19%

**Q.** Which Potency does the source give for CCOC(=O)c1sc(NC(=O)c2ccco2)nc1C here?
**A.** inconclusive: 11.6 µM [activator, partial curve, poor fit]

**Q.** For O=C(COC(=O)c1cn(-c2ccccc2)nc1-c1ccc(F)cc1)Nc1ncc(Cl)cc1Cl, which Potency is on record?
**A.** inconclusive: 20.6 µM [activator, partial curve, poor fit]

**Q.** For COC(=O)c1ccc(NC(=O)Nc2ccc(C)cc2)cc1, which Potency is on record?
**A.** inconclusive: 20.6 µM [activator, single point]

**Q.** With COc1ccc(CC(=O)n2nc(-c3ccccc3)nc2NCc2ccco2)cc1 as the compound, how does the Potency read?
**A.** inconclusive: 32.6 µM [activator, partial curve, poor fit]

**Q.** For Cc1cc(Cl)ccc1OCc1nc(-c2ccc(O)cc2)n[nH]1, which “activity change, positive = activation” value is on record?
**A.** inactive: -2.49%

**Q.** For C#CCNC(=O)/C=C/c1ccc(OC)cc1, which Potency is on record?
**A.** inconclusive: 18.4 µM [activator, single point]

**Q.** With O=C(CSc1nc2nc3c(cc2c(=O)n1-c1ccccc1)CCCC3)Nc1cccc2ccccc12 as the compound, how does the “activity change, positive = activation” value read?
**A.** inactive: -1.74%

**Q.** For Cc1cccc(NC(=O)Cc2ccc(F)cc2)c1, which Potency is on record?
**A.** inconclusive: 25.9 µM [activator, partial curve, poor fit]

**Q.** Which Potency does the source give for Cc1cccc(NC(=O)Cn2nnc3ccccc32)c1 here?
**A.** inconclusive: 0.73 µM [activator, single point]

**Q.** For O=C1OC(c2ccccc2)=C/C1=C/N1CCOCC1, which Potency is on record?
**A.** inconclusive: 20.6 µM [activator, partial curve, poor fit]

**Q.** Which Potency does the source give for COc1ccc(NC(=O)c2ccc([N+](=O)[O-])o2)cc1 here?
**A.** inconclusive: 16.4 µM [activator, single point]

**Q.** For Cc1ccc(-c2cc(C(=O)N/N=C/C=C/c3ccco3)c3ccccc3n2)cc1C, which Potency is on record?
**A.** inconclusive: 3.66 µM [activator, partial curve, poor fit]

**Q.** Which Potency does the source give for C/C(=N\NC(=O)c1ccc([N+](=O)[O-])cc1Cl)c1ccccc1 here?
**A.** inconclusive: 20.6 µM [activator, partial curve, poor fit]

**Q.** For COc1ccc(NCc2nnc(SCC(=O)Nc3nc(-c4ccccc4)cs3)n2-c2ccccc2)cc1, which Potency is on record?
**A.** inconclusive: 29.1 µM [activator, single point]

**Q.** Which “activity change, positive = activation” value does the source give for Cc1ccc(/C=N\Nc2nc3ccc(Cl)cc3[nH]2)o1 here?
**A.** inactive: 7.67%

**Q.** With N/C(=N\OC(=O)CCCc1ccccc1)c1ccccc1Cl as the compound, how does the Potency read?
**A.** inconclusive: 20.6 µM [activator, single point]

**Q.** With Nc1nc2ccc(-c3nc4ccccc4o3)cc2s1 as the compound, how does the Potency read?
**A.** inconclusive: 5.17 µM [activator, partial curve]

**Q.** For COc1ccccc1-c1ccc(NC2CCCC2)nn1, which Potency is on record?
**A.** inconclusive: 18.4 µM [activator, partial curve, poor fit]

**Q.** For CSc1cccc(NC(=O)c2cnn3ccccc23)c1, which Potency is on record?
**A.** inconclusive: 4.61 µM [activator, full curve]

**Q.** Which “activity change, positive = activation” value does the source give for O=c1nc2c(O)cccn2c2c1c(=O)[nH]c1ccccc12 here?
**A.** inactive: 10.3%

**Q.** For O=C(c1ccco1)N1CCN(C(=O)c2cc(-c3ccccc3F)no2)CC1, which Potency is on record?
**A.** inconclusive: 23.1 µM [activator, partial curve, poor fit]

**Q.** Which “activity change, positive = activation” value does the source give for Cc1sc(NC(=O)CSc2nnc(CCNC(=O)c3cccs3)n2C)nc1-c1ccccc1 here?
**A.** inactive: -5.96%

**Q.** With O=C1OC(c2ccccc2)/C(=C(/O)c2ccccc2)C1=O (centres undefined) as the compound, how does the Potency read?
**A.** inconclusive: 29.1 µM [activator, partial curve, poor fit]

**Q.** Which “activity change, positive = activation” value does the source give for O=C(Nc1ncc2c(n1)-c1ccccc1CC2)c1cccs1 here?
**A.** inactive: 1.37%

**Q.** Which Potency does the source give for COc1ccc(-n2nc3cc(C)c(NC(C)=O)cc3n2)cc1 here?
**A.** inconclusive: 0.411 µM [activator, full curve]

**Q.** Which Potency does the source give for Cc1cc(-c2nnc(CSc3nnc(NC(=O)c4ccc(C(C)(C)C)cc4)s3)o2)ccc1[N+](=O)[O-] here?
**A.** inconclusive: 11.6 µM [activator, partial curve, poor fit]

**Q.** For O=C(CCCc1nc(-c2ccc(Cl)cc2)no1)Nc1cccnc1, which Potency is on record?
**A.** inconclusive: 18.4 µM [activator, single point]

**Q.** For N#Cc1ccccc1OCC(=O)Nc1nnc(C2CC2)s1, which Potency is on record?
**A.** inconclusive: 20.6 µM [activator, single point]

**Q.** Which Potency does the source give for CCCCCn1c(CN2CCCCC2CC)nc2c1c(=O)n(C)c(=O)n2C (centres undefined) here?
**A.** inconclusive: 16.4 µM [activator, partial curve, poor fit]
